# Laboratory results published in the supplement of paper PMC8728848.
# The list shows a part of the results.
# Legend:
# Assay in all cases: glycan array binding signal (z-score within array); higher = stronger binding
# Details in all cases: glycan notation: IUPAC condensed, linker removed
# [1] = target: Gal(b1-3)[Fuc(a1-4)]GlcNAc(b1-3)Gal(b1-4)[Fuc(a1-3)]GlcNAc
# Summary of the method: (§1)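 Glycan array binding is given as a within-array Z-score, which can be read as non-binding when negative. The arrays, 3228 of them, came from the Consortium for Functional Glycomics database and were retained only where the protein sequence was available. Z-scores were averaged across arrays of the same protein sequence at different concentrations or buffers and across linkers.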
# [2] = target: Gal(b1-3)[Fuc(a1-4)]GlcNAc(b1-6)GalNAc
# Summary of the method: as §1
# [3] = target: Gal(b1-3)[GlcNAc(b1-6)]GalNAc
# Summary of the method: as §1
# [4] = target: Gal(b1-3)[Neu5Ac(a2-6)]GalNAc
# Summary of the method: as §1
# [5] = target: Gal(b1-3)[Neu5Ac(a2-6)]GlcNAc(b1-4)Gal(b1-4)Glc
# Summary of the method: as §1
# [6] = target: Gal(b1-3)[Neu5Ac(b2-6)]GalNAc
# Summary of the method: as §1
# Gal(b1-4)Gal = target: Gal(b1-4)Gal
# Summary of the method: as §1
# [7] = target: Gal(b1-4)GalNAc(a1-3)[Fuc(a1-2)]Gal(b1-4)GlcNAc
# Summary of the method: as §1
# [8] = target: Gal(b1-4)GalNAc(b1-3)[Fuc(a1-2)]Gal(b1-4)GlcNAc
# Summary of the method: as §1
# Gal(b1-4)Glc = target: Gal(b1-4)Glc
# Summary of the method: as §1
# Gal(b1-4)Glc6S = target: Gal(b1-4)Glc6S
# Summary of the method: as §1
# Gal(b1-4)GlcNAc = target: Gal(b1-4)GlcNAc
# Summary of the method: as §1
# [9] = target: Gal(b1-4)GlcNAc(a1-6)Gal(b1-4)GlcNAc
# Summary of the method: as §1
# Gal(b1-4)GlcNAc(b1-2)Man = target: Gal(b1-4)GlcNAc(b1-2)Man
# Summary of the method: as §1
# [10] = target: Gal(b1-4)GlcNAc(b1-2)Man(a1-3)Man(b1-4)GlcNAc(b1-4)GlcNAc
# Summary of the method: as §1
# [11] = target: Gal(b1-4)GlcNAc(b1-2)Man(a1-3)[Gal(b1-4)GlcNAc(b1-2)Man(a1-6)]Man(b1-4)GlcNAc(b1-4)GlcNAc
# Summary of the method: as §1
# [12] = target: Gal(b1-4)GlcNAc(b1-2)Man(a1-3)[Gal(b1-4)GlcNAc(b1-2)Man(a1-6)]Man(b1-4)GlcNAc(b1-4)[Fuc(a1-6)]GlcNAc
# Summary of the method: as §1
# [13] = target: Gal(b1-4)GlcNAc(b1-2)Man(a1-3)[Gal(b1-4)GlcNAc(b1-2)Man(a1-6)][Gal(b1-4)GlcNAc(b1-4)]Man(b1-4)GlcNAc(b1-4)[Fuc(a1-6)]GlcNAc
# Summary of the method: as §1
# [14] = target: Gal(b1-4)GlcNAc(b1-2)Man(a1-3)[Gal(b1-4)GlcNAc(b1-2)Man(a1-6)][GlcNAc(b1-4)]Man(b1-4)GlcNAc(b1-4)[Fuc(a1-6)]GlcNAc
# Summary of the method: as §1
# [15] = target: Gal(b1-4)GlcNAc(b1-2)Man(a1-3)[GlcNAc(b1-2)Man(a1-6)]Man(b1-4)GlcNAc(b1-4)GlcNAc
# Summary of the method: as §1
# [16] = target: Gal(b1-4)GlcNAc(b1-2)Man(a1-3)[GlcNAc(b1-4)][Gal(b1-4)GlcNAc(b1-2)Man(a1-6)]Man(b1-4)GlcNAc(b1-4)GlcNAc
# Summary of the method: as §1
# [17] = target: Gal(b1-4)GlcNAc(b1-2)Man(a1-3)[Man(a1-6)]Man(b1-4)GlcNAc(b1-4)GlcNAc
# Summary of the method: as §1
# [18] = target: Gal(b1-4)GlcNAc(b1-2)Man(a1-6)Man(b1-4)GlcNAc(b1-4)GlcNAc
# Summary of the method: as §1
# [19] = target: Gal(b1-4)GlcNAc(b1-2)Man(a1-6)[GlcNAc(b1-2)Man(a1-3)]Man(b1-4)GlcNAc(b1-4)GlcNAc
# Summary of the method: as §1
# [20] = target: Gal(b1-4)GlcNAc(b1-2)Man(a1-6)[Man(a1-3)]Man(b1-4)GlcNAc(b1-4)GlcNAc
# Summary of the method: as §1
# [21] = target: Gal(b1-4)GlcNAc(b1-2)[Gal(b1-4)GlcNAc(b1-4)]Man(a1-3)[Gal(b1-4)GlcNAc(b1-2)Man(a1-6)]Man(b1-4)GlcNAc(b1-4)GlcNAc
# Summary of the method: as §1
# [22] = target: Gal(b1-4)GlcNAc(b1-2)[Gal(b1-4)GlcNAc(b1-4)]Man(a1-3)[Gal(b1-4)GlcNAc(b1-2)[Gal(b1-4)GlcNAc(b1-6)]Man(a1-6)]Man(b1-4)GlcNAc(b1-4)GlcNAc
# Summary of the method: as §1
# [23] = target: Gal(b1-4)GlcNAc(b1-2)[Gal(b1-4)GlcNAc(b1-4)]Man(a1-3)[GlcNAc(b1-4)][Gal(b1-4)GlcNAc(b1-2)Man(a1-6)]Man(b1-4)GlcNAc(b1-4)GlcNAc
# Summary of the method: as §1
# [24] = target: Gal(b1-4)GlcNAc(b1-2)[Gal(b1-4)GlcNAc(b1-4)]Man(a1-3)[GlcNAc(b1-4)][Gal(b1-4)GlcNAc(b1-2)[Gal(b1-4)GlcNAc(b1-6)]Man(a1-6)]Man(b1-4)GlcNAc(b1-4)GlcNAc
# Summary of the method: as §1
# [25] = target: Gal(b1-4)GlcNAc(b1-2)[Gal(b1-4)GlcNAc(b1-6)]Man(a1-6)[Gal(b1-4)GlcNAc(b1-2)Man(a1-3)]Man(b1-4)GlcNAc(b1-4)GlcNAc
# Summary of the method: as §1
# [26] = target: Gal(b1-4)GlcNAc(b1-2)[Gal(b1-4)GlcNAc(b1-6)]Man(a1-6)[Gal(b1-4)GlcNAc(b1-2)Man(a1-3)]Man(b1-4)GlcNAc(b1-4)[Fuc(a1-6)]GlcNAc
# Summary of the method: as §1
# [27] = target: Gal(b1-4)GlcNAc(b1-2)[Gal(b1-4)GlcNAc(b1-6)]Man(a1-6)[GlcNAc(b1-4)][Gal(b1-4)GlcNAc(b1-2)Man(a1-3)]Man(b1-4)GlcNAc(b1-4)GlcNAc
# Summary of the method: as §1
# [28] = target: Gal(b1-4)GlcNAc(b1-2)[Gal(b1-4)GlcNAc(b1-6)]Man(a1-6)[GlcNAc(b1-4)][Gal(b1-4)GlcNAc(b1-2)[Gal(b1-4)GlcNAc(b1-4)]Man(a1-3)]Man(b1-4)GlcNAc(b1-4)[Fuc(a1-6)]GlcNAc
# Summary of the method: as §1
# [29] = target: Gal(b1-4)GlcNAc(b1-3)Gal(b1-3)GalNAc
# Summary of the method: as §1
# [30] = target: Gal(b1-4)GlcNAc(b1-3)Gal(b1-3)GlcNAc
# Summary of the method: as §1
# [31] = target: Gal(b1-4)GlcNAc(b1-3)Gal(b1-4)Glc
# Summary of the method: as §1
# [32] = target: Gal(b1-4)GlcNAc(b1-3)Gal(b1-4)GlcNAc
# Summary of the method: as §1
# [33] = target: Gal(b1-4)GlcNAc(b1-3)Gal(b1-4)GlcNAc(b1-2)Man(a1-3)[Gal(b1-4)GlcNAc(b1-3)Gal(b1-4)GlcNAc(b1-2)Man(a1-6)]Man(b1-4)GlcNAc(b1-4)GlcNAc
# Summary of the method: as §1
binder,measurement,setting,value
"AT5G01260(PC)(40) (Arabidopsis thaliana), Q9LFB0 (protein) MIGIGRTLTSSSPSKIILEDLPPGIYRYGTEIFTSVPRKTFHHIKFLRLDSAQSSRILKPVPLRSSSIKDSQVNVEDEEIEASNKTVRVRFQLRKECVFGEHFFIVGDDPVFGGLWDPETALPLNWSDGNVWTVDLDLPVGRLVEFKLLLKAQTGEILWQPGPNRALETWETNKTIRICEDWDNADLQMMIEEDFVPYTNISSIGSEDEDEVLGSVQQNSSVVAVENAGYVSDESAQNSSFSIQSEKTMEPSNGALTAREVIKEAMFTEEESPVLVPGLIPLSDLDNEQVEVINEGKAETFPEVDKKQEPKAERNKKAKVKAISLFEKSEQEAVKSVEQRQYNAVEEEQQRLETEPLGTPDVLFENDIQWGRRTLYKLLSNFRLF",glycan array binding signal (z-score),[1],-0.007
same,glycan array binding signal (z-score),[2],0.343
same,glycan array binding signal (z-score),[3],0.411
same,glycan array binding signal (z-score),[4],-0.559
same,glycan array binding signal (z-score),[5],-0.456
same,glycan array binding signal (z-score),[6],-0.317
same,glycan array binding signal (z-score),Gal(b1-4)Gal,-0.32
same,glycan array binding signal (z-score),[7],-0.618
same,glycan array binding signal (z-score),[8],-0.511
same,glycan array binding signal (z-score),Gal(b1-4)Glc,-0.211
same,glycan array binding signal (z-score),Gal(b1-4)Glc6S,0.576
same,glycan array binding signal (z-score),Gal(b1-4)GlcNAc,0.708
same,glycan array binding signal (z-score),[9],-0.196
same,glycan array binding signal (z-score),Gal(b1-4)GlcNAc(b1-2)Man,0.623
same,glycan array binding signal (z-score),[10],-0.715
same,glycan array binding signal (z-score),[11],-0.173
same,glycan array binding signal (z-score),[12],-0.516
same,glycan array binding signal (z-score),[13],-0.062
same,glycan array binding signal (z-score),[14],-0.686
same,glycan array binding signal (z-score),[15],-0.702
same,glycan array binding signal (z-score),[16],-0.511
same,glycan array binding signal (z-score),[17],-0.269
same,glycan array binding signal (z-score),[18],-0.602
same,glycan array binding signal (z-score),[19],-0.342
same,glycan array binding signal (z-score),[20],-0.694
same,glycan array binding signal (z-score),[21],-0.542
same,glycan array binding signal (z-score),[22],-0.091
same,glycan array binding signal (z-score),[23],-0.626
same,glycan array binding signal (z-score),[24],-0.552
same,glycan array binding signal (z-score),[25],0.037
same,glycan array binding signal (z-score),[26],0.414
same,glycan array binding signal (z-score),[27],-0.385
same,glycan array binding signal (z-score),[28],-0.294
same,glycan array binding signal (z-score),[29],-0.391
same,glycan array binding signal (z-score),[30],-0.621
same,glycan array binding signal (z-score),[31],-0.271
same,glycan array binding signal (z-score),[32],0.255
same,glycan array binding signal (z-score),[33],0.568
